Reference: US9593149B2, “Amylin and calcitonin receptor agonist” (Novo Nordisk A/S, priority 2014, dated 2017)
At least one compound was matched to its structure with a doubt left. Numbered stars: 1 amine (or outer) side, 2 acyl side, 3 side chain; on linkers, the order of the positions; unused ones are H or OH. Peptide text beside a SMILES is read from it. * marks the point of attachment. C20 diacid = O=C(O)CCCCCCCCCCCCCCCCCCC(=O)*; C16 diacid = O=C(O)CCCCCCCCCCCCCCC(=O)*; γGlu = O=C(O)[C@H](CCC(=O)[*:2])N[*:1]; C14 diacid = O=C(O)CCCCCCCCCCCCC(=O)*; AEEA = NCCOCCOCC(=O)O

Assay: Assay (III) ThT fibrillation, physical stability
Format: physicochemical
Settings: pH 7.5, 37° C., shaking

CC(C)C[C@H](NC(=O)[C@H](C)NC(=O)[C@H](C)NC(=O)[C@@H](NC(=O)[C@H](CO)NC(=O)[C@H](CC(C)C)NC(=O)[C@H](CCC(=O)O)NC(=O)[C@H](CO)NC(=O)[C@H](C)NC(=O)COCCOCCNC(=O)COCCOCCNC(=O)CC[C@H](NC(=O)CCCCCCCCCCCCCCCCCCC(=O)O)C(=O)O)[C@@H](C)O)C(=O)NCC(=O)N[C@@H](CCCNC(=N)N)C(=O)N[C@@H](CC(C)C)C(=O)N[C@@H](CO)C(=O)N[C@@H](C)C(=O)N[C@@H](CCC(=O)O)C(=O)N[C@@H](CC(C)C)C(=O)N[C@@H](Cc1c[nH]cn1)C(=O)N[C@@H](CCC(=O)O)C(=O)N[C@@H](CC(C)C)C(=O)N[C@@H](C)C(=O)N[C@H](C(=O)N[C@@H](CC(C)C)C(=O)N1CCC[C@H]1C(=O)N[C@@H](CCCNC(=N)N)C(=O)N[C@H](C(=O)N[C@@H](CCC(=O)O)C(=O)N[C@H](C(=O)NCC(=O)N[C@@H](CO)C(=O)NCC(=O)N[C@@H](CO)C(=O)N1CCC[C@H]1C(N)=O)[C@@H](C)O)[C@@H](C)O)[C@@H](C)O [compound 42, [N-terminal(C20 diacid-gGlu-2xOEG), des1, 30S, 31G]mimylin] ({C20 diacid-γGlu-AEEA-AEEA}-ASELSTAALGRLSAELHELATLPRTETGSGSP-NH2)
ThT pH 7.5 lag time (h): >45 h

CC(C)C[C@H](NC(=O)[C@H](C)NC(=O)[C@H](C)NC(=O)[C@@H](NC(=O)[C@H](CO)NC(=O)[C@H](CC(C)C)NC(=O)[C@H](CCC(=O)O)NC(=O)[C@H](CO)NC(=O)[C@H](C)NC(=O)COCCOCCNC(=O)COCCOCCNC(=O)COCCOCCNC(=O)CC[C@H](NC(=O)CCCCCCCCCCCCCCCCCCC(=O)O)C(=O)O)[C@@H](C)O)C(=O)NCC(=O)N[C@@H](CCCNC(=N)N)C(=O)N[C@@H](CC(C)C)C(=O)N[C@@H](CO)C(=O)N[C@@H](C)C(=O)N[C@@H](CCC(=O)O)C(=O)N[C@@H](CC(C)C)C(=O)N[C@@H](Cc1c[nH]cn1)C(=O)N[C@@H](CCC(=O)O)C(=O)N[C@@H](CC(C)C)C(=O)N[C@@H](C)C(=O)N[C@H](C(=O)N[C@@H](CC(C)C)C(=O)N1CCC[C@H]1C(=O)N[C@@H](CCCNC(=N)N)C(=O)N[C@H](C(=O)N[C@@H](CCC(=O)O)C(=O)N[C@H](C(=O)NCC(=O)N[C@@H](CO)C(=O)NCC(=O)N[C@@H](CO)C(=O)N1CCC[C@H]1C(N)=O)[C@@H](C)O)[C@@H](C)O)[C@@H](C)O [compound 43, [N-terminal(C20 diacid-gGlu-3xOEG), des1, 30S, 31G]mimylin] ({C20 diacid-γGlu-AEEA-AEEA-AEEA}-ASELSTAALGRLSAELHELATLPRTETGSGSP-NH2)
ThT pH 7.5 lag time (h): >45 h

CC(C)C[C@H](NC(=O)[C@H](C)NC(=O)[C@H](C)NC(=O)[C@@H](NC(=O)[C@H](CO)NC(=O)[C@H](CC(C)C)NC(=O)[C@H](CCC(=O)O)NC(=O)[C@H](CO)NC(=O)[C@H](C)NC(=O)COCCOCCNC(=O)COCCOCCNC(=O)COCCOCCNC(=O)COCCOCCNC(=O)CC[C@H](NC(=O)CCCCCCCCCCCCCCCCCCC(=O)O)C(=O)O)[C@@H](C)O)C(=O)NCC(=O)N[C@@H](CCCNC(=N)N)C(=O)N[C@@H](CC(C)C)C(=O)N[C@@H](CO)C(=O)N[C@@H](C)C(=O)N[C@@H](CCC(=O)O)C(=O)N[C@@H](CC(C)C)C(=O)N[C@@H](Cc1c[nH]cn1)C(=O)N[C@@H](CCC(=O)O)C(=O)N[C@@H](CC(C)C)C(=O)N[C@@H](C)C(=O)N[C@H](C(=O)N[C@@H](CC(C)C)C(=O)N1CCC[C@H]1C(=O)N[C@@H](CCCNC(=N)N)C(=O)N[C@H](C(=O)N[C@@H](CCC(=O)O)C(=O)N[C@H](C(=O)NCC(=O)N[C@@H](CO)C(=O)NCC(=O)N[C@@H](CO)C(=O)N1CCC[C@H]1C(N)=O)[C@@H](C)O)[C@@H](C)O)[C@@H](C)O [compound 44, [N-terminal(C20 diacid-gGlu-4xOEG), des1, 30S, 31G]mimylin] ({C20 diacid-γGlu-AEEA-AEEA-AEEA-AEEA}-ASELSTAALGRLSAELHELATLPRTETGSGSP-NH2)
ThT pH 7.5 lag time (h): >45 h

CC(C)C[C@H](NC(=O)[C@H](C)NC(=O)[C@H](C)NC(=O)[C@@H](NC(=O)[C@H](CO)NC(=O)[C@H](CC(C)C)NC(=O)[C@H](CCC(=O)O)NC(=O)[C@H](CO)NC(=O)[C@H](C)NC(=O)COCCOCCNC(=O)COCCOCCNC(=O)COCCOCCNC(=O)COCCOCCNC(=O)COCCOCCNC(=O)CC[C@H](NC(=O)CCCCCCCCCCCCCCCCCCC(=O)O)C(=O)O)[C@@H](C)O)C(=O)NCC(=O)N[C@@H](CCCNC(=N)N)C(=O)N[C@@H](CC(C)C)C(=O)N[C@@H](CO)C(=O)N[C@@H](C)C(=O)N[C@@H](CCC(=O)O)C(=O)N[C@@H](CC(C)C)C(=O)N[C@@H](Cc1c[nH]cn1)C(=O)N[C@@H](CCC(=O)O)C(=O)N[C@@H](CC(C)C)C(=O)N[C@@H](C)C(=O)N[C@H](C(=O)N[C@@H](CC(C)C)C(=O)N1CCC[C@H]1C(=O)N[C@@H](CCCNC(=N)N)C(=O)N[C@H](C(=O)N[C@@H](CCC(=O)O)C(=O)N[C@H](C(=O)NCC(=O)N[C@@H](CO)C(=O)NCC(=O)N[C@@H](CO)C(=O)N1CCC[C@H]1C(N)=O)[C@@H](C)O)[C@@H](C)O)[C@@H](C)O [compound 45, [N-terminal(C20 diacid-gGlu-5xOEG), des1, 30S, 31G]mimylin] ({C20 diacid-γGlu-AEEA-AEEA-AEEA-AEEA-AEEA}-ASELSTAALGRLSAELHELATLPRTETGSGSP-NH2)
ThT pH 7.5 lag time (h): >45 h

CC(C)C[C@H](NC(=O)[C@H](C)NC(=O)[C@H](C)NC(=O)[C@@H](NC(=O)[C@H](CO)NC(=O)[C@H](CC(C)C)NC(=O)[C@H](CCC(=O)O)NC(=O)[C@H](CO)NC(=O)[C@H](C)NC(=O)CC[C@H](NC(=O)CCCCCCCCCCCCCCC(=O)O)C(=O)O)[C@@H](C)O)C(=O)NCC(=O)N[C@@H](CCCNC(=N)N)C(=O)N[C@@H](CC(C)C)C(=O)N[C@@H](CO)C(=O)N[C@@H](C)C(=O)N[C@@H](CCC(=O)O)C(=O)N[C@@H](CC(C)C)C(=O)N[C@@H](Cc1c[nH]cn1)C(=O)N[C@@H](CCC(=O)O)C(=O)N[C@@H](CC(C)C)C(=O)N[C@@H](C)C(=O)N[C@H](C(=O)N[C@@H](CC(C)C)C(=O)N1CCC[C@H]1C(=O)N[C@@H](CCCNC(=N)N)C(=O)N[C@H](C(=O)N[C@@H](CCC(=O)O)C(=O)N[C@H](C(=O)NCC(=O)N[C@@H](CO)C(=O)NCC(=O)N[C@@H](CO)C(=O)N1CCC[C@H]1C(N)=O)[C@@H](C)O)[C@@H](C)O)[C@@H](C)O [compound 47, [N-terminal(C16 diacid-gGlu), des1, 30S, 31G]mimylin] ({C16 diacid-γGlu}-ASELSTAALGRLSAELHELATLPRTETGSGSP-NH2)
ThT pH 7.5 lag time (h): >45 h

CC(C)C[C@H](NC(=O)[C@H](C)NC(=O)[C@H](C)NC(=O)[C@@H](NC(=O)[C@H](CO)NC(=O)[C@H](CC(C)C)NC(=O)[C@H](CCC(=O)O)NC(=O)[C@H](CO)NC(=O)[C@H](C)NC(=O)CC[C@H](NC(=O)CCCCCCCCCCCCC(=O)O)C(=O)O)[C@@H](C)O)C(=O)NCC(=O)N[C@@H](CCCNC(=N)N)C(=O)N[C@@H](CC(C)C)C(=O)N[C@@H](CO)C(=O)N[C@@H](C)C(=O)N[C@@H](CCC(=O)O)C(=O)N[C@@H](CC(C)C)C(=O)N[C@@H](Cc1c[nH]cn1)C(=O)N[C@@H](CCC(=O)O)C(=O)N[C@@H](CC(C)C)C(=O)N[C@@H](C)C(=O)N[C@H](C(=O)N[C@@H](CC(C)C)C(=O)N1CCC[C@H]1C(=O)N[C@@H](CCCNC(=N)N)C(=O)N[C@H](C(=O)N[C@@H](CCC(=O)O)C(=O)N[C@H](C(=O)NCC(=O)N[C@@H](CO)C(=O)NCC(=O)N[C@@H](CO)C(=O)N1CCC[C@H]1C(N)=O)[C@@H](C)O)[C@@H](C)O)[C@@H](C)O [compound 50, [N-terminal(C14 diacid-gGlu), des1, 30S, 31G]mimylin] ({C14 diacid-γGlu}-ASELSTAALGRLSAELHELATLPRTETGSGSP-NH2)
ThT pH 7.5 lag time (h): >45 h
